From PubChem BioAssay AID1671193 (National Center for Advancing Translational Sciences (NCATS), 2021)
Several values for one entry are separate records, joined by “and”; a condition that tells them apart may be missing. Equal entries are not always repeated. In all, about 150,000 compounds went through this assay and about 180 (0.12%) were called active. The inconclusive results got no clear call from the source; some entries with a clear call stand among them for comparison. Calls follow the shape of the dose curve; as a rule, active = well fitted cell-killing curve with a large enough effect; inconclusive = small, poorly fitted or top-dose-only effect, or effect the other way; inactive = flat fitted curve, though single readings scatter. A potency beside an inconclusive call is a rough fit, not a confirmed value.

Test: GF-AFC viability counterscreen for inhibitors of alpha-synuclein gene (SNCA) expression; also: nearly all actives have a fitted effect of over 30% in size
Settings: HEK-293-SNCA-luc viability, GF-AFC fluorescence, 24 h; series mostly up to 57.1 µM
Outline: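 Cytotoxicity counterscreen: after 24 h compound treatment of genome-edited SNCA-luciferase HEK-293 cells, live-cell protease substrate GF-AFC read by fluorescence after 30 min; activity scaled between DMSO (0%) and medium-only (-100%), curves Hill-fitted.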
Potency is read from the fitted curve at half-maximal effect; tags tell the direction and shape of the fitted curve.

SMILES | Potency
COc1cccc(-c2nc3cnccn3c2NCCC(=O)Nc2ccc(F)cc2C)c1 | inconclusive: 20 µM [rising, single point]
CC(=O)c1sc2c(c1C)c(=O)n(-c1ccc(Cl)cc1)c(=O)n2Cc1cc(=O)n2cc(Cl)ccc2n1 | inconclusive: 1.78 µM [cytotoxic, partial curve, poor fit]
CO[C@H]1C[C@@H]2CC[C@@H](C)[C@@](O)(O2)C(=O)C(=O)N2CCCC[C@H]2C(=O)O[C@H]([C@@H](C)C[C@@H]2CC[C@@H](O)[C@H](OC)C2)CC(=O)[C@H](C)/C=C(\C)[C@@H](O)[C@@H](OC)C(=O)[C@H](C)C[C@H](C)/C=C/C=C/C=C/1C | inconclusive: 29.9 µM [cytotoxic, partial curve]
CC(C)OC(=O)C1=CN(C(=O)c2ccc(F)c(F)c2)CC(C)(C)c2c1[nH]c1ccccc21 | inconclusive: 1.71 µM [cytotoxic, full curve, poor fit]
CC1=C[C@@H](CNC(=O)C2CC2)[C@H](C(C)C)C[C@H]1Cc1nnc(-c2cncn2C)o1 | inconclusive: 17.8 µM [cytotoxic, partial curve, poor fit]
Cn1nc(-c2nncn2CC2CC2)c2c1CCN(C(=O)C1CC1)C2 | inactive
COc1cccc(Nc2ncc3ncc(=O)n(C[C@H]4CCCO4)c3n2)c1 | inconclusive: 25.1 µM [cytotoxic, partial curve]
Cc1ccc(-c2nc3n(n2)C(c2ccccc2C)C=C(c2ccc(Cl)cc2)N3)cc1 (configuration not stated) | inconclusive: 20 µM [rising, partial curve, poor fit]
CC1=C[C@@H](CNCc2cccnc2)[C@H](C(C)C)C[C@H]1Cc1nnc(-c2ccccc2F)o1 | inactive
Cc1ccc(NC(=O)CSc2nc3ccccc3nc2Cc2ccccc2F)cc1F | inconclusive: 31.6 µM [rising, single point]
CC(C)C[C@@H]1N[C@H](C(=O)NCc2ccc(F)cc2)Cc2c[nH]c3cccc1c23 | inconclusive: 56.2 µM [cytotoxic, single point]
N#Cc1cccc(NC(=O)O[C@@H]2CO[C@H]3[C@@H]2OC[C@@H]3Nc2nccc(-c3cccc(F)c3)n2)c1 | inconclusive: 31.6 µM [cytotoxic, partial curve, poor fit]
O=C(CN1C(=O)NC2(CCS(=O)(=O)CC2)C1=O)Nc1ccc2c(c1)OCCO2 | inactive
Cc1noc(C)c1-c1cc(-c2cccc3cc[nH]c23)cn2cncc12 | inconclusive: 20 µM [cytotoxic, partial curve, poor fit]
Cc1ccc(CSc2nc(-c3ccccc3C)nc3c2Cc2c(CO)cnc(C)c2O3)cc1 | inconclusive: 25.1 µM [cytotoxic, single point]
CCn1ccc(C(=O)N2CC(Oc3ccc(-c4nc(-c5ccccc5)no4)cc3)C2)n1 | inconclusive: 39.8 µM [cytotoxic, single point]
CNC(=O)c1ccc2c(C(=Nc3cccc(CN(C)C)c3)c3ccccc3)c(O)[nH]c2c1 | inconclusive: 42.9 µM [cytotoxic, single point] and inconclusive: 15 µM [cytotoxic, partial curve, poor fit]
O=C(c1ccc(Cl)cc1)N1CCC2(C1)C(=O)N(Cc1ccccc1)c1ccccc12 (configuration not stated) | inconclusive: 14.1 µM [cytotoxic, partial curve, poor fit]
O=C(NCc1cccs1)c1cc(-c2ccccc2)c2nncn2n1 | inactive

SMILES | Potency
O=C(c1ccc(Cl)cc1)N1CCC2(C1)C(=O)N(c1ccccc1)c1ccccc12 (configuration not stated) | inconclusive: 22.4 µM [cytotoxic, partial curve, poor fit]
CCOc1ccccc1NC(=O)c1c(NC(=O)Cc2ccc(OC)cc2)sc2c1CCC2 | inconclusive: 28.2 µM [cytotoxic, single point]
COCCn1c(=O)cnc2cnc(Nc3ccccc3)nc21 | inconclusive: 35.5 µM [cytotoxic, single point]
COc1ccc(-n2nc3c(N4CCCC(C(=O)NCCc5ccccc5C)C4)nnc(C)c3c2C)cc1 (configuration not stated) | inconclusive: 14.1 µM [cytotoxic, partial curve, poor fit]
COc1ccc(CN2C(=O)[C@@H]3C[C@@H](CN3CC3CC3)Oc3ccccc32)cc1 | inconclusive: 39.8 µM [cytotoxic, partial curve, poor fit]
O=C(NCc1ccco1)c1cc2c(s1)CCN(C(=O)c1ccc(Cl)cc1)C2 | inconclusive: 39.8 µM [cytotoxic, single point]
Cc1ccc(NC(=O)c2c(NC(=O)C(F)(F)F)sc3c2CCCCC3)cc1 | inconclusive: 8.91 µM [cytotoxic, partial curve, poor fit]
O=C(Cn1c(-c2cccs2)cc2ccccc21)NCCCN1CCN(c2ccccc2F)CC1 | inconclusive: 39.8 µM [cytotoxic, single point]
COc1ccc(NC(=O)Nc2nnc(N(CC(C)C)CC(C)C)s2)c(OC)c1 | inconclusive: 10 µM [cytotoxic, partial curve, poor fit]
OCCN1CCN(c2ccc(-c3nc(-c4cccc(C(F)(F)F)c4)no3)cn2)CC1 | inactive
COc1ccc(CNC(=O)C[C@@H]2C[C@@H](C(C)C)[C@H](CNC(=O)c3ccc(C#N)cc3)C=C2C)cc1 | inconclusive: 39.8 µM [cytotoxic, single point]
Cc1nn2c(c1-c1ccccc1C(N)=O)N(CCCc1ccccc1)CCC2 | inconclusive: 3.16 µM [cytotoxic, full curve, poor fit]
O=C(Cn1ncc2c3ccccc3n(Cc3ccc(F)cc3)c2c1=O)NCCCN1CCCCC1 | inconclusive: 10 µM [rising, full curve, poor fit]
Cc1c(C(=O)N2CCC(C)CC2)c(S(=O)(=O)Nc2ccc(OC(F)(F)F)cc2)c(C)n1C | inconclusive: 20 µM [cytotoxic, single point]
Cc1ccc(-c2ccc3ncc4c(c3n2)n(C2CCN(C(=O)[C@H](C)O)CC2)c(=O)n4C)cn1 | inconclusive: 0.106 µM [cytotoxic, full curve, poor fit]
CCN(C(=O)C1CCCN(c2ncnc3c2nc2n3CCCCC2)C1)c1cccc(Cl)c1 (configuration not stated) | inconclusive: 1.26 µM [cytotoxic, partial curve, poor fit]
Cc1nnc([C@H]2CCN(C(=O)c3ccc4c(c3)OCO4)C2)o1 | inactive
CCOc1ccc(C(=O)NC2CCCN(c3cc(-c4ccc(OC)cc4)[nH]n3)C2)cc1OCC (configuration not stated) | inactive
Cc1ccc(CNC(=O)N2CCC(Cn3c(C)cnc3C3CCOCC3)CC2)cc1 | inconclusive: 3.55 µM [cytotoxic, single point]

SMILES | Potency
COc1ccc(CCN2CCC(CNC(=O)c3cnn(-c4cccc(Cl)c4)c3C3CCN(C(=O)OC(C)(C)C)CC3)CC2)cc1 | inconclusive: 39.8 µM [cytotoxic, single point]
C[C@@H]1[C@H](C)CC[C@]2(C(=O)O)CC[C@]3(C)C(=CC[C@@H]4[C@@]5(C)CC[C@H](O)C(C)(C)[C@H]5CC[C@]43C)[C@@H]12 | inactive
CNC(=O)C1CCCN(Cc2cccc(-c3ccccc3OC)c2)C1 (configuration not stated) | inactive
COc1ccc(-c2ccc3c(c2)C(=O)N2CC[C@H](NS(=O)(=O)c4cccs4)[C@H]2C(=O)N3)cc1 | inactive
CC(C)(C)OC(=O)N1CCC(c2c(C(=O)Nc3ccc4c(c3)OCO4)cnn2-c2ccccc2)CC1 | inconclusive: 25.1 µM [cytotoxic, single point]
Cc1ccccc1NC(=O)c1ccc(N(Cc2ccccc2)S(C)(=O)=O)cc1 | inconclusive: 17.8 µM [cytotoxic, partial curve, poor fit]
COc1ccc(-c2nc(C)nc3c2CCN(Cc2cccc4ccccc24)CC3)cc1 | inactive
O=C(COc1ccccc1)Nc1ccc([C@@H](O)[C@H]2COCC(=O)N2Cc2ccc(C(F)(F)F)cc2)cc1 | inactive
Cc1ccc(CC(=O)N2CCC(c3n[nH]c(=O)n3-c3ccccc3)CC2)cc1 | inactive
CC(=O)Nc1cccc(-c2cnc3n[nH]c(-c4ccc5c(c4)OCO5)c3n2)c1 | inconclusive: 10 µM [cytotoxic, partial curve, poor fit]
C=C1C(=O)O[C@@H]2[C@H]1CC(=O)[C@H](C)[C@@](O)(C(=O)/C=C/C)[C@H]2OC(=O)C(C)CC (some centres not stated) | active: 9.27 µM
COc1ccc(-c2nc(SCC(=O)NCc3ccccc3Cl)n[nH]2)cc1 | inconclusive: 22.4 µM [cytotoxic, partial curve, poor fit]
COc1ccccc1NC(=O)CSc1nc2c(oc3ccccc32)c(=O)n1Cc1ccco1 | inconclusive: 1.26 µM [cytotoxic, full curve, poor fit]
Cn1cnc([N+](=O)[O-])c1Sc1ncnc2nc[nH]c12 | inconclusive: 4.82 µM [cytotoxic, full curve, poor fit]
Cc1ccc(-c2ncc(C(=O)Nc3ccccc3)c(-c3ccncc3)n2)cc1 | inconclusive: 39.8 µM [cytotoxic, single point]
Cc1cc2c(-c3cccc(O)c3)nc(-c3c(C)noc3C)cc2[nH]1 | inactive
COc1ccc(C(=O)N2CCCC2c2nc(CCOc3ccc(F)cc3)no2)cc1 (configuration not stated) | inconclusive: 7.08 µM [cytotoxic, partial curve]
O=C(c1ccccc1F)N1CCC(C(=O)N2CCC(N3CCOC3=O)CC2)CC1 | inactive
COc1ccccc1-c1ccc2c(C(=O)NCc3ccc(F)cc3)nn(C)c2n1 | inconclusive: 39.8 µM [rising, single point]
